# About 14,000 (4.5%) of roughly 310,000 compounds showed an effect of 50% or more. Effects have a minus sign here. The list shows a part of the results.
# Molecular target: human ether-à-go-go-related gene (hERG) potassium channel (human, UniProt Q12809)
# Experiment: primary screen, population patch clamp on CHO cells stably expressing hERG
# 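Further: peak tail current of the secondary pulse compared with the same well before compound.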
# human ether-à-go-go-related gene (hERG) potassium channel, sequence (Q12809 whole entry, looked up): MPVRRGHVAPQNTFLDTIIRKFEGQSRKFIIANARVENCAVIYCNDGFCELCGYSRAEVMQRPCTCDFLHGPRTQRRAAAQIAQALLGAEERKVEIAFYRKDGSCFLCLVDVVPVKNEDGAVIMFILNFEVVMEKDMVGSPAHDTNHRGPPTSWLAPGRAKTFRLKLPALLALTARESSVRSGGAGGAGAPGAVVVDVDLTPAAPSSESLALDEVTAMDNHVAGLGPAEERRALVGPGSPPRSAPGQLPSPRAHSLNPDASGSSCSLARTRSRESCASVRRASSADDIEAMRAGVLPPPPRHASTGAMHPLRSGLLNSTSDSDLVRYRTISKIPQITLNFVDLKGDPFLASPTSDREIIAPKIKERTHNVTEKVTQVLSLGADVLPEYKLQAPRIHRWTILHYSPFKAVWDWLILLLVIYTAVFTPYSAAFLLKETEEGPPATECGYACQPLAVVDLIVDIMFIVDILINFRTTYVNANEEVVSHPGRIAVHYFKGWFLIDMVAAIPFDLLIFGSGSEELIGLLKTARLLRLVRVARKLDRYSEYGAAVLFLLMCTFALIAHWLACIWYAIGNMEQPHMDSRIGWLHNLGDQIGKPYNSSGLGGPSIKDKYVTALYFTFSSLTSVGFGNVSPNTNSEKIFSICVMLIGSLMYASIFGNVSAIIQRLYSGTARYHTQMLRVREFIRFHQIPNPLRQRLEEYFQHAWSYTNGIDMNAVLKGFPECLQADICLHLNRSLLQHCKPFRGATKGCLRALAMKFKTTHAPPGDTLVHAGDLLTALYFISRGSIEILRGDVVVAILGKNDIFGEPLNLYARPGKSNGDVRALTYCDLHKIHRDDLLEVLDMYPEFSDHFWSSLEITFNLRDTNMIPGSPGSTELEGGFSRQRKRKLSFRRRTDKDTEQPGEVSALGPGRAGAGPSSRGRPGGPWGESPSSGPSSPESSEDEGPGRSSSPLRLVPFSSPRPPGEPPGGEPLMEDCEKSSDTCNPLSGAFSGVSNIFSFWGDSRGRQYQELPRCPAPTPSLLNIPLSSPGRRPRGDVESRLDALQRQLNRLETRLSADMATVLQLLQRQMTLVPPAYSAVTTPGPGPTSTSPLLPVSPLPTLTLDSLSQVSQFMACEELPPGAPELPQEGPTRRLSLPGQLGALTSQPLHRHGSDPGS
row,SMILES,"hERG current change (%, negative = inhibition) at 10uM [%]"
1,CCCOC1CCCN(C(=O)c2cc(COc3ccc(F)c(F)c3)on2)C1 (centres unmarked),-39.1
2,Cc1ccc2nc(-c3ccccn3)cc(C(=O)N3CCN(c4ncccn4)CC3)c2c1,7.32
3,Cn1nccc1C(=O)Nc1cc(Cl)ccc1Cl,9.02
4,C/C(=N\NC(=O)c1cc(C)oc1C)c1ccc2ccccc2c1,8.79
5,CCC(=O)NCCc1c[nH]c2ccccc12,1.24
6,COc1ccc(CCN=C(N)NS(=O)(=O)c2ccccc2)cc1OC,19.5
7,Cc1c(C(=O)NCc2ccccc2)c(-c2ccccc2)nn1-c1ccccc1,-13
8,CN(C)c1ccc(/C=C2/C(=O)NC(=O)N(Cc3ccco3)C2=O)cc1,4.11
9,COc1ccc(C)cc1N1CC(C(=O)Nc2ccccc2C(=O)NC2CC2)CC1=O (centres unmarked),2.22
10,CN(C)S(=O)(=O)N1CCN(c2ccc([N+](=O)[O-])c(N3CCCCC3)c2)CC1,7.8
11,O=C(Cn1ccc(C(F)(F)F)n1)Nc1cccc(S(=O)(=O)N2CCCCC2)c1,-60.5
12,S=C(c1ccc(-c2cccc(Cl)c2)o1)N1CCOCC1,2.46
13,Cn1ncc(C#N)c1/N=C/N1CCCC1,8.25
14,CCN1CCN(C(c2ccccc2)c2nnnn2CCc2ccc(OC)c(OC)c2)CC1.Cl (centres unmarked),5.02
15,CC(OC(=O)C1CSC2(C)CCC(=O)N12)C(=O)Nc1cccc(C#N)c1 (centres unmarked),-9.25
16,CCOC(=O)C1(Cc2cccc(Cl)c2)CCCN(C(=O)CCOC)C1 (centres unmarked),-0.593
17,O=C(COc1ncnc2scc(-c3ccccc3)c12)NC1CCCc2ccccc21 (centres unmarked),-14.3
18,CC(=NCc1ccco1)c1c(O)n(-c2ccc(Cl)cc2)c(=O)[nH]c1=O,16.4
19,Clc1ccccc1N1CCN(Cc2ccco2)CC1,-4.9
20,CC[n+]1ccc(C[n+]2ccccc2)c2ccccc21.[I-],19.7
21,O=C(CSc1ccc(-c2ccccc2)nn1)NC1CCCCC1,-5.91
22,COc1ccc(CNC(=O)C(=O)NCC2CCCO2)cc1 (centres unmarked),9.7

row,SMILES,"hERG current change (%, negative = inhibition) at 10uM [%]"
1,CCNc1nc(NCC)n2c(SCC(=O)Nc3ccccc3[N+](=O)[O-])nnc2n1,-14.5
2,C#CCOCCOCCOCCNc1nc(N2CCN(C(=O)C([C@@H](C)CC)n3cc(C(N)Cc4ccc(O)cc4)nn3)CC2)nc(N2CCN(C(=O)[C@H](CCC(=O)O)n3cc(C(N)[C@H](C)CC)nn3)CC2)n1.Cl (some centres unmarked),4.5
3,CCC(CC)NC(=O)C1CC(=O)N(CCc2ccc(F)cc2)C1 (centres unmarked),12.5
4,Cc1ccc(S(=O)(=O)N/N=C\C=C\c2ccccc2)cc1,11.9
5,O=C(O)c1cnc(-c2ccccc2)nc1-c1ccccc1,15.8
6,Cc1cccc(NC(=S)NN2CCOCC2)c1C,0.896
7,Oc1ccc2ccccc2c1/C=N/n1cnnc1,-11.9
8,COCCCNC(=O)/C=C/c1ccc(OCc2c(F)cccc2Cl)cc1,-1.25
9,Cc1cc(=O)n(C)c(=O)n1CCCCCCOc1cccc([N+](=O)[O-])c1,-69.3
10,COc1ccc(CCNC(=O)c2cnc3scc(C)n3c2=O)cc1OC,-22.9
11,CCOc1ccccc1NC(=O)CCc1c(C)nn(-c2ccc(N3CCCCC3)nn2)c1C,2.28
12,O=C(CNC(=O)c1ccc(F)cc1)N/N=C/c1cc(Br)ccc1OCc1ccccc1,16.5
13,Cc1nn(-c2ccccc2)c(Cl)c1/C=N/NC(=O)c1ccnn1C,3.53
14,NC(=O)c1nsnc1-c1ccccc1O,7.95
15,COC(=O)[C@@]12CCCCN1[C@H](c1ccc(-c3ccc(OC)cc3)c(OC)c1)[C@@H]1C(=O)N(C)C(=O)[C@@H]12.O=C(O)C(F)(F)F,6.68
16,COc1ccc(NC(C)C(=O)N/N=C/c2ccc([N+](=O)[O-])s2)cc1 (centres unmarked),-25.4
17,CCNC(=S)N1CCCC(c2nc3ccc(C)cc3[nH]2)C1 (centres unmarked),-2.45
18,Cn1cccc1C(=O)OCc1cc(Cl)cc2c1OCOC2,-1.05
19,O=C1c2ccccc2C(=O)N1CCCCN(C(=O)c1cc2ccccc2oc1=O)c1ccc(Cl)cc1,-2.87
20,N#Cc1c(SCC(=O)O)nc(N2CCOCC2)c2c1CCCC2,7.71
21,CCC(C)NC(=O)CN1c2cccc3cccc(c23)S1(=O)=O (centres unmarked),2.42
22,COC(=O)c1c(-c2ccccc2Cl)noc1-c1cnc(N)nc1C(F)(F)F,8.78
